The record followed here is publication PMC9911399, “Two distinct binding modes provide the RNA-binding protein RbFox with extraordinary sequence specificity”.

T1: RBFOX1 RRM (Homo sapiens, UniProt Q9NWB1 109-208)
T1 sequence: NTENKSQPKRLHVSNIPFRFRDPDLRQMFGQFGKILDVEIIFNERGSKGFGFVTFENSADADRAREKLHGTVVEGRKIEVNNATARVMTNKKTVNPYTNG

B1: AGAAUUC (DNA:RNA)
RNA: GGGAGACCGGAAUUCAGAUUGUCCAGAAUUCUUAAAUCCCGUCGUAGCCACCA
DNA 1: CAATCTGAATTCCGGTCTCCC
DNA 2: TGGTGGCTACGACGGGATT
B2: CACCAGU (DNA:RNA)
RNA: GGGAGACCGGAAUUCAGAUUGUCCCACCAGUUUAAAUCCCGUCGUAGCCACCA
DNA 1: CAATCTGAATTCCGGTCTCCC
DNA 2: TGGTGGCTACGACGGGATT
B3: ACACCAG (DNA:RNA)
RNA: B1 RNA with G26C, A28C, U29C, U30A, C31G
DNA 1: CAATCTGAATTCCGGTCTCCC
DNA 2: TGGTGGCTACGACGGGATT
B4: UGGCGUC (DNA:RNA)
RNA: B1 RNA with A25U, A27G, A28C, U29G
DNA 1: CAATCTGAATTCCGGTCTCCC
DNA 2: TGGTGGCTACGACGGGATT
B5: GCAGGGC (DNA:RNA)
RNA: B1 RNA with A25G, G26C, A28G, U29G, U30G
DNA 1: CAATCTGAATTCCGGTCTCCC
DNA 2: TGGTGGCTACGACGGGATT
B6: UGGGGGG (DNA:RNA)
RNA: B1 RNA with A25U, A27G, A28G, U29G, U30G, C31G
DNA 1: CAATCTGAATTCCGGTCTCCC
DNA 2: TGGTGGCTACGACGGGATT
B7: CGUUGAC (DNA:RNA)
RNA: B1 RNA with A25C, A27U, A28U, U29G, U30A
DNA 1: CAATCTGAATTCCGGTCTCCC
DNA 2: TGGTGGCTACGACGGGATT
B8: CCUAUAU (DNA:RNA)
RNA: B1 RNA with A25C, G26C, A27U, U30A, C31U
DNA 1: CAATCTGAATTCCGGTCTCCC
DNA 2: TGGTGGCTACGACGGGATT
B9: GAACUUU (DNA:RNA)
RNA: B1 RNA with A25G, G26A, A28C, C31U
DNA 1: CAATCTGAATTCCGGTCTCCC
DNA 2: TGGTGGCTACGACGGGATT
B10: GAAACGG (DNA:RNA)
RNA: B1 RNA with A25G, G26A, U29C, U30G, C31G
DNA 1: CAATCTGAATTCCGGTCTCCC
DNA 2: TGGTGGCTACGACGGGATT
B11: UUCCAGG (DNA:RNA)
RNA: B2 RNA with C25U, A26U, U31G
DNA 1: CAATCTGAATTCCGGTCTCCC
DNA 2: TGGTGGCTACGACGGGATT
B12: UUCGUGG (DNA:RNA)
RNA: B2 RNA with C25U, A26U, C28G, A29U, U31G
DNA 1: CAATCTGAATTCCGGTCTCCC
DNA 2: TGGTGGCTACGACGGGATT
B13: AACCGUC (DNA:RNA)
RNA: B1 RNA with G26A, A27C, A28C, U29G
DNA 1: CAATCTGAATTCCGGTCTCCC
DNA 2: TGGTGGCTACGACGGGATT
B14: GUUCAUU (DNA:RNA)
RNA: B2 RNA with C25G, A26U, C27U, G30U
DNA 1: CAATCTGAATTCCGGTCTCCC
DNA 2: TGGTGGCTACGACGGGATT
B15: CUAUAGG (DNA:RNA)
RNA: B2 RNA with A26U, C27A, C28U, U31G
DNA 1: CAATCTGAATTCCGGTCTCCC
DNA 2: TGGTGGCTACGACGGGATT
B16: AAGCACU (DNA:RNA)
RNA: B2 RNA with C25A, C27G, G30C
DNA 1: CAATCTGAATTCCGGTCTCCC
DNA 2: TGGTGGCTACGACGGGATT
B17: GAGCUCG (DNA:RNA)
RNA: B2 RNA with C25G, C27G, A29U, G30C, U31G
DNA 1: CAATCTGAATTCCGGTCTCCC
DNA 2: TGGTGGCTACGACGGGATT
B18: ACCUGUU (DNA:RNA)
RNA: B1 RNA with G26C, A27C, A28U, U29G, C31U
DNA 1: CAATCTGAATTCCGGTCTCCC
DNA 2: TGGTGGCTACGACGGGATT
B19: UGUCGUC (DNA:RNA)
RNA: B1 RNA with A25U, A27U, A28C, U29G
DNA 1: CAATCTGAATTCCGGTCTCCC
DNA 2: TGGTGGCTACGACGGGATT
B20: AUAUGAA (DNA:RNA)
RNA: B1 RNA with G26U, A28U, U29G, U30A, C31A
DNA 1: CAATCTGAATTCCGGTCTCCC
DNA 2: TGGTGGCTACGACGGGATT
B21: CCCGGCU (DNA:RNA)
RNA: B2 RNA with A26C, C28G, A29G, G30C
DNA 1: CAATCTGAATTCCGGTCTCCC
DNA 2: TGGTGGCTACGACGGGATT
B22: UUUGGGG (DNA:RNA)
RNA: B2 RNA with C25U, A26U, C27U, C28G, A29G, U31G
DNA 1: CAATCTGAATTCCGGTCTCCC
DNA 2: TGGTGGCTACGACGGGATT
B23: UCGCACA (DNA:RNA)
RNA: B2 RNA with C25U, A26C, C27G, G30C, U31A
DNA 1: CAATCTGAATTCCGGTCTCCC
DNA 2: TGGTGGCTACGACGGGATT
B24: CGGGCCA (DNA:RNA)
RNA: B1 RNA with A25C, A27G, A28G, U29C, U30C, C31A
DNA 1: CAATCTGAATTCCGGTCTCCC
DNA 2: TGGTGGCTACGACGGGATT
B25: AAACACC (DNA:RNA)
RNA: B1 RNA with G26A, A28C, U29A, U30C
DNA 1: CAATCTGAATTCCGGTCTCCC
DNA 2: TGGTGGCTACGACGGGATT
B26: GGGUCCA (DNA:RNA)
RNA: B1 RNA with A25G, A27G, A28U, U29C, U30C, C31A
DNA 1: CAATCTGAATTCCGGTCTCCC
DNA 2: TGGTGGCTACGACGGGATT
B27: UAAAAAC (DNA:RNA)
RNA: B1 RNA with A25U, G26A, U29A, U30A
DNA 1: CAATCTGAATTCCGGTCTCCC
DNA 2: TGGTGGCTACGACGGGATT
B28: CGACUGC (DNA:RNA)
RNA: B1 RNA with A25C, A28C, U30G
DNA 1: CAATCTGAATTCCGGTCTCCC
DNA 2: TGGTGGCTACGACGGGATT
B29: GGCCUAA (DNA:RNA)
RNA: B1 RNA with A25G, A27C, A28C, U30A, C31A
DNA 1: CAATCTGAATTCCGGTCTCCC
DNA 2: TGGTGGCTACGACGGGATT
B30: CUUGUUU (DNA:RNA)
RNA: B1 RNA with A25C, G26U, A27U, A28G, C31U
DNA 1: CAATCTGAATTCCGGTCTCCC
DNA 2: TGGTGGCTACGACGGGATT
B31: UGUAAAU (DNA:RNA)
RNA: B1 RNA with A25U, A27U, U29A, U30A, C31U
DNA 1: CAATCTGAATTCCGGTCTCCC
DNA 2: TGGTGGCTACGACGGGATT

Substitutions are numbered along the chain they refer to; changes in the protein carry UniProt numbers. This is one part of the list.

This assay has as its target T1, RBFOX1 RRM. Nature of the assay: EMSA; HiTS-Eq, 1 nM pool, 10 min; buffer printed only for the single-RNA assays: 10 mM Tris pH 7.5, 150 mM NaCl, 3.4 mM EDTA, 0.001% NP-40, 30 C. Particulars: tags: His6 N-terminal (pET28a); label: 5' 32P. In outline:
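Purified RbFox RRM (wild type or mutant) was equilibrated for 10 min in 50 µL with 1 nM of a 5′-radiolabelled pool of RNA with 7 randomized nucleotides, its flanks annealed to DNA oligonucleotides, across increasing protein concentrations. Free RNA was separated by 8% native PAGE, excised, reverse-transcribed, PCR-barcoded and sequenced on an Illumina HiSeq 2500. Relative association constants came from read-count changes of each variant against the control reaction, normalised to the cognate motif.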
(Mobility shift assays separate free from complexed probe on a gel.)
Consider B1, for which the binding signal was 0.00754 KA relative to UGCAUGU.

B2: the binding signal is 0.00204 KA relative to UGCAUGU. The result for B3 reads 0.000772 KA relative to UGCAUGU; that for B4, 0.0251 KA relative to UGCAUGU; that for B5, 0.0104 KA relative to UGCAUGU. With B6, the binding signal is 0.0192 KA relative to UGCAUGU. The result for B7 reads 0.0168 KA relative to UGCAUGU; that for B8, 0.00417 KA relative to UGCAUGU. For the molecule B9, the binding signal is 0.00658 KA relative to UGCAUGU. With B10 the figure was 0.00878 KA relative to UGCAUGU; with B11, 0.00624 KA relative to UGCAUGU.

Turning to B12, the binding signal was 0.0117 KA relative to UGCAUGU. B13: the binding signal was 0.00529 KA relative to UGCAUGU. The result for B14 reads 0.0111 KA relative to UGCAUGU; that for B15, 0.00847 KA relative to UGCAUGU. With B16 the figure was 0.00663 KA relative to UGCAUGU.

Turning to B17, the binding signal is 0.0273 KA relative to UGCAUGU. In the case of B18, the binding signal is 0.00541 KA relative to UGCAUGU. The result for B19 reads 0.0214 KA relative to UGCAUGU; that for B20, 0.00541 KA relative to UGCAUGU; that for B21, 0.00594 KA relative to UGCAUGU.

Consider B22, for which the binding signal is 0.00415 KA relative to UGCAUGU.

On to B23, for which the binding signal was 0.0113 KA relative to UGCAUGU.

As to B24, the binding signal is 0.0228 KA relative to UGCAUGU. With B25 the figure was 0.00184 KA relative to UGCAUGU; with B26, 0.0128 KA relative to UGCAUGU. With B27 the figure was 0.00251 KA relative to UGCAUGU; with B28, 0.02 KA relative to UGCAUGU; with B29, 0.00539 KA relative to UGCAUGU.

With B30, the binding signal was 0.0156 KA relative to UGCAUGU.

Turning to B31, the binding signal is 0.0112 KA relative to UGCAUGU.
